# Measured values as given in the supplement of paper PMC8728848.
# Some of the results follow.
# What was measured:
# Experiment in all cases: glycan array binding signal (z-score within array); higher = stronger binding
# Conditions in all cases: glycan notation: IUPAC condensed, linker removed
# [1] = target: Neu5Ac(a2-3)Gal(b1-4)GlcNAc(b1-3)Gal(b1-4)GlcNAc(b1-3)Gal(b1-4)GlcNAc
# Procedure, shortened: (§1)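 Glycan array data were curated from 3228 arrays in the Consortium for Functional Glycomics database and kept only where the protein sequence was available. Glycan names were converted to IUPAC-condensed notation, and columns mapping to the same glycan were averaged. The binding signal is a within-array Z-score, averaged across arrays of the same protein sequence at different concentrations or buffers and across linkers. Negative Z-scores can be read as non-binding.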
# [2] = target: Neu5Ac(a2-3)Gal(b1-4)GlcNAc(b1-3)Gal(b1-4)[Fuc(a1-3)]GlcNAc
# Procedure, shortened: as §1
# [3] = target: Neu5Ac(a2-3)Gal(b1-4)GlcNAc(b1-3)GalNAc
# Procedure, shortened: as §1
# [4] = target: Neu5Ac(a2-3)Gal(b1-4)GlcNAc(b1-6)[Gal(b1-3)]GalNAc
# Procedure, shortened: as §1
# [5] = target: Neu5Ac(a2-3)Gal(b1-4)GlcNAc(b1-6)[Neu5Ac(a2-3)Gal(b1-3)]GalNAc
# Procedure, shortened: as §1
# [6] = target: Neu5Ac(a2-3)Gal(b1-4)GlcNAc6S
# Procedure, shortened: as §1
# [7] = target: Neu5Ac(a2-3)Gal(b1-4)[Fuc(a1-3)]GlcNAc
# Procedure, shortened: as §1
# [8] = target: Neu5Ac(a2-3)Gal(b1-4)[Fuc(a1-3)]GlcNAc(b1-3)Gal
# Procedure, shortened: as §1
# [9] = target: Neu5Ac(a2-3)Gal(b1-4)[Fuc(a1-3)]GlcNAc(b1-3)Gal(b1-4)GlcNAc
# Procedure, shortened: as §1
# [10] = target: Neu5Ac(a2-3)Gal(b1-4)[Fuc(a1-3)]GlcNAc(b1-3)Gal(b1-4)[Fuc(a1-3)]GlcNAc(b1-3)Gal(b1-4)[Fuc(a1-3)]GlcNAc
# Procedure, shortened: as §1
# [11] = target: Neu5Ac(a2-3)Gal(b1-4)[Fuc(a1-3)]GlcNAc(b1-3)GalNAc
# Procedure, shortened: as §1
# [12] = target: Neu5Ac(a2-3)Gal(b1-4)[Fuc(a1-3)]GlcNAc(b1-6)[Gal(b1-3)]GalNAc
# Procedure, shortened: as §1
# [13] = target: Neu5Ac(a2-3)Gal(b1-4)[Fuc(a1-3)]GlcNAc(b1-6)[Neu5Ac(a2-3)Gal(b1-3)]GalNAc
# Procedure, shortened: as §1
# [14] = target: Neu5Ac(a2-3)Gal(b1-4)[Fuc(a1-3)]GlcNAc6S
# Procedure, shortened: as §1
# [15] = target: Neu5Ac(a2-3)Gal6S(b1-4)GlcNAc
# Procedure, shortened: as §1
# [16] = target: Neu5Ac(a2-3)Gal6S(b1-4)[Fuc(a1-3)]GlcNAc
# Procedure, shortened: as §1
# Neu5Ac(a2-3)GalNAc = target: Neu5Ac(a2-3)GalNAc
# Procedure, shortened: as §1
# [17] = target: Neu5Ac(a2-3)GalNAc(b1-4)GlcNAc
# Procedure, shortened: as §1
# [18] = target: Neu5Ac(a2-3)[GalNAc(b1-4)]Gal(b1-4)Glc
# Procedure, shortened: as §1
# [19] = target: Neu5Ac(a2-3)[GalNAc(b1-4)]Gal(b1-4)GlcNAc
# Procedure, shortened: as §1
# [20] = target: Neu5Ac(a2-3)[GalNAc(b1-4)]Gal(b1-4)GlcNAc(b1-3)GalNAc
# Procedure, shortened: as §1
# [21] = target: Neu5Ac(a2-3)[Neu5Ac(a2-6)]GalNAc
# Procedure, shortened: as §1
# Neu5Ac(a2-6)Gal = target: Neu5Ac(a2-6)Gal
# Procedure, shortened: as §1
# Neu5Ac(a2-6)Gal(b1-4)Glc = target: Neu5Ac(a2-6)Gal(b1-4)Glc
# Procedure, shortened: as §1
# [22] = target: Neu5Ac(a2-6)Gal(b1-4)GlcNAc
# Procedure, shortened: as §1
# [23] = target: Neu5Ac(a2-6)Gal(b1-4)GlcNAc(b1-2)Man(a1-3)Man(b1-4)GlcNAc(b1-4)GlcNAc
# Procedure, shortened: as §1
# [24] = target: Neu5Ac(a2-6)Gal(b1-4)GlcNAc(b1-2)Man(a1-3)[Gal(b1-4)GlcNAc(b1-2)Man(a1-6)]Man(b1-4)GlcNAc(b1-4)GlcNAc
# Procedure, shortened: as §1
# [25] = target: Neu5Ac(a2-6)Gal(b1-4)GlcNAc(b1-2)Man(a1-3)[GlcNAc(b1-2)Man(a1-6)]Man(b1-4)GlcNAc(b1-4)GlcNAc
# Procedure, shortened: as §1
# [26] = target: Neu5Ac(a2-6)Gal(b1-4)GlcNAc(b1-2)Man(a1-3)[GlcNAc(b1-2)Man(b1-4)GlcNAc(b1-2)Man(a1-6)]Man(b1-4)GlcNAc(b1-4)GlcNAc
# Procedure, shortened: as §1
# [27] = target: Neu5Ac(a2-6)Gal(b1-4)GlcNAc(b1-2)Man(a1-3)[Man(a1-6)]Man(b1-4)GlcNAc(b1-4)GlcNAc
# Procedure, shortened: as §1
# [28] = target: Neu5Ac(a2-6)Gal(b1-4)GlcNAc(b1-2)Man(a1-3)[Neu5Ac(a2-6)Gal(b1-4)GlcNAc(b1-2)Man(a1-6)]Man(b1-4)GlcNAc(b1-4)GlcNAc
# Procedure, shortened: as §1
# [29] = target: Neu5Ac(a2-6)Gal(b1-4)GlcNAc(b1-2)Man(a1-6)Man(b1-4)GlcNAc(b1-4)GlcNAc
# Procedure, shortened: as §1
# [30] = target: Neu5Ac(a2-6)Gal(b1-4)GlcNAc(b1-2)Man(a1-6)[Gal(b1-4)GlcNAc(b1-2)Man(a1-3)]Man(b1-4)GlcNAc(b1-4)GlcNAc
# Procedure, shortened: as §1
# [31] = target: Neu5Ac(a2-6)Gal(b1-4)GlcNAc(b1-2)Man(a1-6)[GlcNAc(b1-2)Man(a1-3)]Man(b1-4)GlcNAc(b1-4)GlcNAc
# Procedure, shortened: as §1
# [32] = target: Neu5Ac(a2-6)Gal(b1-4)GlcNAc(b1-2)Man(a1-6)[Man(a1-3)]Man(b1-4)GlcNAc(b1-4)GlcNAc
# Procedure, shortened: as §1
# [33] = target: Neu5Ac(a2-6)Gal(b1-4)GlcNAc(b1-3)Gal(b1-3)GlcNAc
# Procedure, shortened: as §1
# [34] = target: Neu5Ac(a2-6)Gal(b1-4)GlcNAc(b1-3)Gal(b1-4)GlcNAc
# Procedure, shortened: as §1
# [35] = target: Neu5Ac(a2-6)Gal(b1-4)GlcNAc(b1-3)Gal(b1-4)GlcNAc(b1-3)Gal(b1-4)GlcNAc
# Procedure, shortened: as §1
# [36] = target: Neu5Ac(a2-6)Gal(b1-4)GlcNAc(b1-3)Gal(b1-4)[Fuc(a1-3)]GlcNAc(b1-3)Gal(b1-4)[Fuc(a1-3)]GlcNAc
# Procedure, shortened: as §1
# [37] = target: Neu5Ac(a2-6)Gal(b1-4)GlcNAc(b1-3)GalNAc
# Procedure, shortened: as §1
# [38] = target: Neu5Ac(a2-6)Gal(b1-4)GlcNAc6S
# Procedure, shortened: as §1
# Neu5Ac(a2-6)GalNAc = target: Neu5Ac(a2-6)GalNAc
# Procedure, shortened: as §1
# [39] = target: Neu5Ac(a2-6)GalNAc(b1-4)GlcNAc
# Procedure, shortened: as §1
# [40] = target: Neu5Ac(a2-6)GlcNAc(b1-4)GlcNAc
# Procedure, shortened: as §1
# [41] = target: Neu5Ac(a2-6)GlcNAc(b1-4)GlcNAc(b1-4)GlcNAc
# Procedure, shortened: as §1
binder,measurement,setting,value
GH98CBM51-1 (Streptococcus pneumoniae) (protein) MTYLSDMDWSSATHGDIDKTKTVQKDAPFTTGNKGEHTKISLLTSDDKVKYFDKGIGTVADSPSVISYDISGQGFEKFETYIGIDQSANSSRSDHAVVDRIEIEIDGKVVYSSSVTNPEGFRYNTQAQFISVTIPQNAKKISLKSFAGEHTWGDEVVFADAKLIKTVST,glycan array binding signal (z-score),[1],-0.19
same,glycan array binding signal (z-score),[2],-0.191
same,glycan array binding signal (z-score),[3],-0.153
same,glycan array binding signal (z-score),[4],-0.195
same,glycan array binding signal (z-score),[5],-0.189
same,glycan array binding signal (z-score),[6],-0.191
same,glycan array binding signal (z-score),[7],-0.191
same,glycan array binding signal (z-score),[8],-0.192
same,glycan array binding signal (z-score),[9],-0.175
same,glycan array binding signal (z-score),[10],-0.193
same,glycan array binding signal (z-score),[11],-0.15
same,glycan array binding signal (z-score),[12],-0.185
same,glycan array binding signal (z-score),[13],-0.183
same,glycan array binding signal (z-score),[14],-0.182
same,glycan array binding signal (z-score),[15],-0.187
same,glycan array binding signal (z-score),[16],-0.15
same,glycan array binding signal (z-score),Neu5Ac(a2-3)GalNAc,-0.199
same,glycan array binding signal (z-score),[17],-0.19
same,glycan array binding signal (z-score),[18],-0.196
same,glycan array binding signal (z-score),[19],-0.19
same,glycan array binding signal (z-score),[20],-0.189
same,glycan array binding signal (z-score),[21],-0.189
same,glycan array binding signal (z-score),Neu5Ac(a2-6)Gal,-0.187
same,glycan array binding signal (z-score),Neu5Ac(a2-6)Gal(b1-4)Glc,-0.192
same,glycan array binding signal (z-score),[22],-0.193
same,glycan array binding signal (z-score),[23],-0.191
same,glycan array binding signal (z-score),[24],-0.192
same,glycan array binding signal (z-score),[25],-0.19
same,glycan array binding signal (z-score),[26],-0.192
same,glycan array binding signal (z-score),[27],-0.19
same,glycan array binding signal (z-score),[28],-0.176
same,glycan array binding signal (z-score),[29],-0.187
same,glycan array binding signal (z-score),[30],-0.194
same,glycan array binding signal (z-score),[31],-0.188
same,glycan array binding signal (z-score),[32],-0.188
same,glycan array binding signal (z-score),[33],-0.192
same,glycan array binding signal (z-score),[34],-0.142
same,glycan array binding signal (z-score),[35],-0.189
same,glycan array binding signal (z-score),[36],-0.186
same,glycan array binding signal (z-score),[37],-0.191
same,glycan array binding signal (z-score),[38],-0.192
same,glycan array binding signal (z-score),Neu5Ac(a2-6)GalNAc,-0.136
same,glycan array binding signal (z-score),[39],-0.188
same,glycan array binding signal (z-score),[40],-0.184
same,glycan array binding signal (z-score),[41],-0.193
